This note sets out measurements from PMC4336329 (PLoS ONE, 2015).

Screen size: about 310,000 compounds; about 14,000 (4.5%) showed an effect of 50% or more. Effects have a minus sign here. This is one part of the list.
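Further: peak tail current of the secondary pulse compared with the same well before compound.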

The target of the assay is human ether-à-go-go-related gene (hERG) potassium channel (human, UniProt Q12809). Put plainly: primary screen, population patch clamp on CHO cells stably expressing hERG.
Sequence of human ether-à-go-go-related gene (hERG) potassium channel (Q12809 whole entry, looked up): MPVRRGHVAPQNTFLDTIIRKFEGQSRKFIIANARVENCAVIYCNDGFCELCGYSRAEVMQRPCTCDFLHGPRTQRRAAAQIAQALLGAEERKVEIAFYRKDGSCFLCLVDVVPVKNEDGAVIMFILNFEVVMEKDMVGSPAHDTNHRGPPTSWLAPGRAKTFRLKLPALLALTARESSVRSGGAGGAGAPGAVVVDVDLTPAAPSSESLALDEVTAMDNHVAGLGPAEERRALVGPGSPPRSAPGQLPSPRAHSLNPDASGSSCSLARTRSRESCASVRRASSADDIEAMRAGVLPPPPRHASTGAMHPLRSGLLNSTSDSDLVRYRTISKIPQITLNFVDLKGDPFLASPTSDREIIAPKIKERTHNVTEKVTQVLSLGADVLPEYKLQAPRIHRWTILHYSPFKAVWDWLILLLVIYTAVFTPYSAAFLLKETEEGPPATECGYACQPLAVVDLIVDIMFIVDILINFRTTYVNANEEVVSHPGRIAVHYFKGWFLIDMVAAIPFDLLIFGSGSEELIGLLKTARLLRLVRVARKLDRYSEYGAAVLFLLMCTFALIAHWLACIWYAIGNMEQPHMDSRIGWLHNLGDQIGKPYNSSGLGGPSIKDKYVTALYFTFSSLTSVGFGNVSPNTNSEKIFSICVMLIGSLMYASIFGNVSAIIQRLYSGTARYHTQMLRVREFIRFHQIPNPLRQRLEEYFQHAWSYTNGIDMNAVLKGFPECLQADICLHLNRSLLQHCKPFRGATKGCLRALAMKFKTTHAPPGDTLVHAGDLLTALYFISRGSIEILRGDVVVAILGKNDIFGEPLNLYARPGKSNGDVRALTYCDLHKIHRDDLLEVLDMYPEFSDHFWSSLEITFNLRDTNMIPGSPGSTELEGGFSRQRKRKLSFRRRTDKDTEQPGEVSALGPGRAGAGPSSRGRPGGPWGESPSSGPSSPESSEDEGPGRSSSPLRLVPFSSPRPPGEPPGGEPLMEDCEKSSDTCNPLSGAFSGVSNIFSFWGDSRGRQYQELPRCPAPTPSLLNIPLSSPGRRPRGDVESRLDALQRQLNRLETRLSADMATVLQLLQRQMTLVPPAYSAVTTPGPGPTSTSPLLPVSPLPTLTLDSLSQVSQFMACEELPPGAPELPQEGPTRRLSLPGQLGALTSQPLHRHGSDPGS
In the case of `CC(=O)N1CCc2cc(Br)cc(S(=O)(=O)NCCCN3CCC(C)CC3)c21`, the “hERG current change (%, negative = inhibition) at 10uM” value is on record as -16.8%.
`Fc1ccc(Oc2ncccn2)c(F)c1`: the “hERG current change (%, negative = inhibition) at 10uM” value is 13.3%.
For `Cc1ccc2c(NC(=S)NC(=O)c3ccccc3)cccc2n1` the value was 2.85%; for `CCCCCCCCCCCC(=O)O`, 24.4%.
As for `CC1CCN(C(=O)c2ccc(CSc3nc4ccncc4n3Cc3ccc(F)cc3)cc2)CC1`, the “hERG current change (%, negative = inhibition) at 10uM” value was -46%.
In the case of `Cc1ccc(S(=O)(=O)c2c(N)n(NC(=O)c3ccco3)c3nc4ccccc4nc23)cc1` it was -4.68%; in that of `O=Cc1ccc(N2CCCC2)c(F)c1`, -1.25%; in that of `O=C(CCc1nnc2ccc(NCc3ccc(F)cc3)nn12)N1CCC2(CC1)OCCO2`, -0.229%.
In the case of `CCCCCCn1c(C)nc2c(c1=O)c1nc3ccccc3nc1n2/N=C/c1ccco1` it was -36.1%; in that of `COc1cccc(NC(=O)c2nn(-c3ccc(OC)cc3OC)c(=O)c3ccccc23)c1`, 13%.
For `CCOc1ccc(S(=O)(=O)N2CCC(C(=O)N3CCN(C)CC3)CC2)cc1Cl` the value was 5.6%.
Consider `OCCN1CCN(C(=S)NC2CCCC2)CC1`, for which the “hERG current change (%, negative = inhibition) at 10uM” value was -15.5%.
For `O=C(CN1CCN(c2cccc(Cl)c2)CC1)c1ccc(O)cc1O` the value was -8.43%.
In the case of `Cc1ccc(SCc2[nH]nc3c2C2(C(=O)Nc4ccc([N+](=O)[O-])cc42)C(C#N)=C(N)O3)cc1` (stereo not shown) it was -3.87%; in that of `Cc1ccc(CNC(=O)CN(c2ccc(Cl)cc2)S(C)(=O)=O)cc1`, 2.81%; in that of `CC1Cc2cc(/C(O)=C3/C(=O)C(=O)N(CCCN4CCOCC4)C3c3ccc(C(C)C)cc3)ccc2O1` (stereo not shown), 9.02%.
In the case of `O=C(Nc1cccc(-c2nc3ncccc3o2)c1)c1sc2ccccc2c1Cl` it was 12.6%; in that of `CSc1cccc(NC(=O)CCC(=O)O)c1`, -0.827%; in that of `COc1ccccc1C1C2CCCCC2(O)CCN1CC(=O)Nc1ccccc1` (stereo not shown), -32.5%.
For the compound `COC(=O)CN(c1ccc(F)cc1)S(=O)(=O)c1ccc2c(c1)OCCO2`, the “hERG current change (%, negative = inhibition) at 10uM” value is -32.2%.
For `CC1Cc2ccccc2N1CC(=O)NC(c1ccccc1)c1ccccc1.O=C(O)C(=O)O` (stereo not shown) the value was 19.1%.
For the compound `Cc1ccc(S(=O)(=O)CCC(=O)c2ccc(F)cc2)cc1`, the “hERG current change (%, negative = inhibition) at 10uM” value is 8.7%.
For `C=CCSc1nccc(=O)[nH]1`, the “hERG current change (%, negative = inhibition) at 10uM” value was 14.8%.
In the case of `O=S(=O)(NCC1CCCO1)c1ccc(Oc2ccccc2)cc1` (stereo not shown) it was -7.25%; in that of `C=CCN(CC=C)C(=O)c1ccc(OC2CCN(Cc3ccccn3)CC2)cc1`, -9.67%; in that of `CSCCC(NC(=O)c1ccc(Cl)cc1)C(=O)OCC(=O)Nc1cc(Cl)ccc1C#N` (stereo not shown), 9.99%.
In the case of `COc1ccc(NC(=O)c2cc(CC(C)C)on2)cc1OC` it was -11.4%.
As for `COc1ccc(-c2cnn3c4c(c(C)nc23)CCN4C2CCCC2)cc1OC`, the “hERG current change (%, negative = inhibition) at 10uM” value is recorded as 2.7%.
For `CC(C)c1ccc(NC(=O)COC(=O)/C=C/c2cccc(Br)c2)cc1` the value was -6.17%; for `Cc1csc(CNC(=O)C2CCC(=O)N(CCc3cccc(F)c3)C2)n1` (stereo not shown), -13.9%; for `O=C(c1ccco1)N1CCN(C(=O)c2ccc(COc3ccc(F)cc3)o2)CC1`, -62.6%.
In the case of `C#Cc1ccc(CN2CCC(Oc3ccc(C(=O)NCc4ccccn4)cc3)CC2)cc1` it was -25%.
For `Cc1cc(C(=O)Nc2cccc3ccccc23)n(-c2ccccc2)n1` the value was 1.06%; for `Cc1cccc(OP(N)(=O)Oc2cccc(C)c2)c1`, 12.5%; for `Cc1ccc(C)c(OC(=O)c2cncc(Br)c2)c1`, -14.6%.
Regarding `CCOC(=O)N1CCN(C(=O)CSCC(=O)Nc2nc(-c3ccc(OC)cc3)cs2)CC1`, the “hERG current change (%, negative = inhibition) at 10uM” value was -34.6%.
In the case of `COc1ccc(-c2cc(-c3ccc(N)cc3)nc(N)c2C#N)cc1OC` it was -5.47%; in that of `CCOC(=O)C(C)N1CC(=O)N(c2ccccc2)C1=O` (stereo not shown), 12.9%; in that of `Cc1ccc(/C=N/NC(=O)CSc2nc3ccccc3c(=O)n2-c2ccccc2)s1`, -5.57%.
Take `Cc1ccc(S(=O)(=O)N2CCN(C(=O)CN3C(=O)NC4(CCOc5ccccc54)C3=O)CC2)cc1` (stereo not shown): the “hERG current change (%, negative = inhibition) at 10uM” value is 1.01%.
For `CCn1c(SCC(=O)NCC2CCCO2)nnc1-c1ccc(Cl)cc1` (stereo not shown) the value was -2.64%; for `COc1ccc(/C=N/NC(=O)CCn2cnc(-c3ccccc3)c2-c2ccccc2)cc1`, -46.2%.
In the case of `COc1ccc(OC)c(S(=O)(=O)NCC(c2ccc3c(c2)OCO3)N2CCOCC2)c1` (stereo not shown) it was -28.4%; in that of `Brc1cc(Cc2nnc(-c3ccccc3)o2)c(Br)s1`, 9.83%.
In the case of `CCOC(=O)c1c(C)[nH]c(C(=O)OC(C)C(=O)NC2CCCCC2C)c1C` (stereo not shown) it was -5.27%.
Take `COc1ccc(CC(=O)Nc2sc3c(c2C(N)=O)CCCC3)cc1`: the “hERG current change (%, negative = inhibition) at 10uM” value is listed as -1.39%.
In the case of `CCOC(=O)C(NC(C)=O)(Nc1ccc(S(=O)(=O)Nc2ncccn2)cc1)C(F)(F)F` (stereo not shown) it was 28.7%.
In the case of `O=C(c1ccc(COCC(F)(F)F)cc1)N1CCN(c2ccccn2)CC1` it was -18.1%; in that of `CC(C)CNC(=O)c1ccccc1NC(=O)c1ccc(CN2CCOCC2)cc1`, -6.15%; in that of `Cn1c(O)c(/C=C2\C=Nc3ccccc32)sc1=Nc1ccc(C(=O)O)cc1`, -21.5%.
For `CCCSc1ncccc1C(=O)O` the value was 13.9%.
Take `Cc1c(O)c2c3c(cccc3c1O)C(=O)N(c1ccccc1)C2=O`: the “hERG current change (%, negative = inhibition) at 10uM” value is listed as -14%.
Turning to `CCOC(=O)C1(Cc2cccc(OC)c2)CCN(CC=C(C)C)CC1`, the “hERG current change (%, negative = inhibition) at 10uM” value is recorded as -22%.
With `Cc1ccc(C(=O)NCC(=O)NCCc2ccc(S(N)(=O)=O)cc2)s1`, the “hERG current change (%, negative = inhibition) at 10uM” value came to 1.22%.
For `CC1=NN(C(=S)Nc2ccccc2)C(c2ccccc2)C1` (stereo not shown) the value was 2.86%; for `Cc1cccc(NS(=O)(=O)c2ccc(C3CCCCC3)cc2)c1`, 15%; for `Cc1nn2c(NCCCN(C)C)c3c(nc2c1-c1ccccc1)CCC3`, -59.4%.
For `COC(=O)c1cccc(C(=O)N2CCC(CO)(Cc3ccccc3Cl)CC2)c1` the value was -23.1%; for `COCCC(=O)N1CCCC(C(=O)c2ccc3c4c(cccc24)CC3)C1` (stereo not shown), -17.8%; for `CC(=O)C1=NOC(CNc2ncc(C(F)(F)F)cc2Cl)C1` (stereo not shown), 7.33%.
Consider `CC(=O)NNC(=O)C(O)(c1ccccc1)c1ccccc1`, for which the “hERG current change (%, negative = inhibition) at 10uM” value was determined as 4.55%.
With `CC(C)(C)C(=O)Nc1ccccc1C(=O)NCCC(=O)Nc1ccccc1`, the “hERG current change (%, negative = inhibition) at 10uM” value is -4.45%.
In the case of `CC(=O)NC(c1ccco1)c1cc(Cl)c2ccccc2c1O` (stereo not shown) it was -5.91%.
In the case of `COc1ccc(C2CC(=O)C3=C(C2)Nc2ncnn2C3c2ccccc2)cc1` (stereo not shown) it was -18.2%.
As for `Cn1c(SCc2cc([N+](=O)[O-])cc3c2OCOC3)nnc1-c1ccccn1`, the “hERG current change (%, negative = inhibition) at 10uM” value is recorded as 5%.
Regarding `NNc1nc2sc3c(c2c(=O)n1-c1ccccc1)CCCC3`, the “hERG current change (%, negative = inhibition) at 10uM” value is listed as -10.5%.
For `O=C1C2CCC(C(O)C2)N1Cc1ccccc1` (stereo not shown) the value was -4.82%; for `CC1=C(C(=O)Nc2ccc(C)cn2)C(c2cnn(C)c2)C2=C(CCCC2=O)N1` (stereo not shown), 7.53%.
In the case of `CC(=O)c1c(C)[nH]c(C(=O)OCC(=O)NCCc2ccc(F)cc2)c1C`, the “hERG current change (%, negative = inhibition) at 10uM” value is reported as -16.7%.
In the case of `Cc1ccc2c(COC(=O)c3ccc(C)c(C)c3)cc(=O)oc2c1` it was 25.7%.
As to `O=S(=O)(Nc1ccccc1N1CCCCC1)c1ccccc1`, the “hERG current change (%, negative = inhibition) at 10uM” value is reported as -4.76%.
For `Cc1c(NC(=O)c2cccc(F)c2)c(=O)n(-c2ccccc2)n1C` the value was 20.5%.
Consider `COc1ccc(NC(=O)C2CCN(c3nc(-c4ccc(OC)cc4)no3)CC2)cc1`, for which the “hERG current change (%, negative = inhibition) at 10uM” value came out at 16.1%.
For `CN(C(=O)c1ccc(NC(=O)Cc2cccc(NC(=O)C3CCCN(C(=O)C4CC4)C3)c2)cc1)C1CCCC1` (stereo not shown) the value was 1.52%; for `O=C1NCCN(Cc2ccc(Cl)c(F)c2)C1CC(=O)N1CCCCO1` (stereo not shown), 7.42%.
In the case of `CCC(=O)N1c2ccc(S(=O)(=O)CCC(=O)NC3CCCC3)cc2CC1C` (stereo not shown), the “hERG current change (%, negative = inhibition) at 10uM” value is listed as -6.73%.
For `CC1(c2nnc(-c3ccc(F)cc3)o2)CC(c2cccc(Cl)c2)=NO1` (stereo not shown) the value was -11.1%.
For `Nc1c(C(=O)NCCCc2ccccc2)c2nc3ccccc3nc2n1Cc1cccs1` the value was -3.23%; for `COc1cc(NC(=O)c2ccccc2Cl)c(OC)cc1NC(=O)CN1CCCCC1`, -30.1%; for `Cc1cccc(OCCCN2C(=O)C(=O)c3cc(C)ccc32)c1`, -14.7%.
Turning to `COC(=O)/C=C1/N/C(=N\c2nc(C)cc(C)n2)N(c2cccc(C)c2)C1=O`, the “hERG current change (%, negative = inhibition) at 10uM” value is reported as -1.75%.
As for `COC(=O)Nc1nnc(COc2cccc(C)c2)s1`, the “hERG current change (%, negative = inhibition) at 10uM” value was -5.23%.
In the case of `COc1ccccc1N1CCN(CC(O)COc2ccc(C)cc2C)CC1.Cl` (stereo not shown) it was -73.1%.
Regarding `CCOC(=O)Cn1c(-c2cccnc2Cl)nc2cc(Cl)c(Cl)cc21`, the “hERG current change (%, negative = inhibition) at 10uM” value was -16.6%.
For `Cc1ccc(NC(=S)N(N)CCO)cc1` the value was 13.5%; for `O=C1Nc2ccccc2CCC1Sc1nnc(-c2ccc(Cl)cc2)s1` (stereo not shown), -1.68%.
In the case of `CCN1CCN(S(=O)(=O)c2ccc(OC)cc2)CC1` it was 6.86%; in that of `Cc1cccc(C)c1NC(=O)CSCCO`, 20%.
